Assay results from PubChem BioAssay AID924 (National Center for Advancing Translational Sciences (NCATS), 2007).
About 1,200 (0.92%) of roughly 130,000 compounds were called active. Inconclusive means that the source gave no clear call. Such entries were picked first, then a sample of the others. Calls follow the shape of the dose curve; as a rule, active = well fitted cell-killing curve with a large enough effect; inconclusive = small, poorly fitted or top-dose-only effect; inactive = no such curve, though single readings can be large or run the other way. Potencies of inconclusive entries are doubtful fits and often do not repeat.

Assay: qHTS Screen for Compounds that Selectively Target Cancer Cells with p53 Mutations: Cytotoxicity of p53ts Cells at the Permissive Temperature; also: nearly all actives have a fitted effect of over 55% in size
Settings: H1299-p53A138V at 32C, ATP luminescence viability, 24 h; activity change, negative = cytotoxicity: at 46.1 µM (top of the series)
How it was run: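 ATP-content luminescence (ATPlite) read-out after 24 h compound exposure at 32C in H1299-p53A138V cells (600/well). Tested up to 46 uM. Normalized to DMSO (0%) and 100 uM tamoxifen (100% killing); Hill-fit AC50.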
Potency is read from the fitted curve at half-maximal effect; tags tell the direction and shape of the fitted curve.

SMILES | Potency | activity change, negative = cytotoxicity
COc1ccc(C2=CC(c3ccc(N(C)C)cc3)n3nnnc3N2)cc1 (stereo not given) | inconclusive: 2 µM [cytotoxic, full curve] | –
Cc1ccc(-c2nc3cc(N)ccc3o2)cc1 | active: 3.98 µM | –
COc1ccc(C(=O)Nc2onc3c2CCCC3)cc1 | active: 10 µM | –
Cc1ccc(S(=O)(=O)Nc2ccc(-c3ccc(N4CCCCCC4)nn3)cc2)cc1C | inactive | –
Cc1ccc(F)cc1NC(=O)CCc1c(C)nn(-c2ccc(N3CCCCC3)nn2)c1C | inconclusive: 12.6 µM [cytotoxic, partial curve] | –
O=C(Nc1ccccc1C(=O)O)c1ccc2ccccc2n1 | inconclusive: 10 µM [cytotoxic, partial curve] | –
CCOc1ccc(-c2nc(-c3ccccc3C)no2)cc1 | inconclusive: 12.6 µM [cytotoxic, partial curve] | –
OC1(c2cccc(C(F)(F)F)c2)CCN(c2ncnc3c2[nH]c2ccc(F)cc23)CC1 | inconclusive: 15.8 µM [cytotoxic, single point] | –
COc1ccc(C2C(C#N)=C(N)Oc3n[nH]c(C)c32)cc1CN1CCN(c2ccc(F)cc2)CC1 (stereo not given) | inconclusive: 12.6 µM [cytotoxic, single point] | –
CC1CCN(c2ccc(-c3cccc(NS(=O)(=O)c4ccc(Cl)s4)c3)nn2)CC1 | active: 6.31 µM | –
COc1ccc(-c2nnn3c2nc(NCc2ccccc2)c2ccccc23)cc1 | inactive | –
CCCCCCCN(C(=O)CCl)c1ccccc1C | inconclusive: 0.0891 µM [cytotoxic, full curve, poor fit] | –
Oc1ccc(/C=C\c2cc(O)cc(O)c2)cc1 | active: 7.94 µM | –
Cc1ccc(-c2cc(C(=O)N3CCN(c4ncccn4)CC3)c3ccccc3n2)cc1 | active: 12.6 µM | –
CCOc1ccc(-c2cc(C(=O)NCc3ccc(OCC)c(OC)c3)[nH]n2)cc1 | inactive | –
CCn1c(C(=O)NCc2ccccc2C)cc2oc3ccccc3c21 | inconclusive: 3.98 µM [cytotoxic, full curve] | –
Cc1nc(-c2cccc(NC(=O)Nc3ccc([N+](=O)[O-])cc3)c2)no1 | inactive | –
COC(=O)c1ccc2c(=O)n(CCCCCC(=O)N3CCN(c4ccccc4)CC3)c(=O)[nH]c2c1 | inconclusive: 25.1 µM [cytotoxic, single point] | –
O=C(CC1(O)C(=O)Nc2cc(Cl)cc(Cl)c21)c1ccccc1O (stereo not given) | inconclusive: 35.5 µM [cytotoxic, single point] | –
CCOC(=O)c1[nH]c(COC(=O)C2CC(=O)N(Cc3ccccc3)C2)c(C(=O)OCC)c1C (stereo not given) | inactive | –
CC(C)CC(=O)Nc1cccc(-c2cn3ccsc3n2)c1 | inconclusive: 15.8 µM [cytotoxic, partial curve] | –
N=C(N)c1ccc(N=Nc2c(O)ccc3c2[nH]c2ccccc23)cc1 | – | inactive: -0.738% [at 9.22 µM]
COc1ccc(C2=NOC(C(=O)N3CCCc4ccccc43)C2)cc1 (stereo not given) | inconclusive: 15.8 µM [cytotoxic, single point] | –
COc1c(-c2coc3cc4c(cc3c2=O)CC(O)C(C)(C)O4)ccc2c1C=CC(C)(C)O2 (stereo not given) | inconclusive: 20 µM [cytotoxic, single point] | –

SMILES | Potency | activity change, negative = cytotoxicity
Nc1ccc(N2CCN(c3ncc(C(F)(F)F)cc3Cl)CC2)c(C(F)(F)F)c1 | inconclusive: 15.8 µM [cytotoxic, single point] | –
O=C(C1CCN(c2ncnc3c2nc2n3CCCCC2)CC1)N1CCN(c2cccc(Cl)c2)CC1 | inactive | –
COc1cccc(-c2nc(-c3ccccc3)no2)c1 | inconclusive: 20 µM [cytotoxic, single point] | –
COc1ccc(Nc2cc(C(=O)NCCCN3CCN(c4ccc(OC)cc4)CC3)c3ccccc3n2)cc1 | inconclusive: 14.1 µM [cytotoxic, single point] | –
C=C(CC(=O)O)C(=O)O (tested in a mixture with another compound) | – | inactive: -0.0484% [at 9.22 µM]
Cc1cccc(CNc2ncncc2-c2ccccc2CN(C)C)c1 | inactive | –
c1csc(-c2nnc(-c3ccc(N4CCOCC4)cc3)o2)c1 | active: 12.6 µM | –
N#Cc1c(/N=C/c2ccco2)sc2c1CCC2 | inconclusive: 20 µM [cytotoxic, single point] | –
Cc1ccccc1CN1C(=O)c2ccccc2S(=O)c2ccc(C(=O)NC3CCC(C)CC3)cc21 (stereo not given) | inactive | –
Cc1cc2nc(-c3ccc(SCC(=O)N4CCN(C(=O)c5ccco5)CC4)nc3)[nH]c2cc1C | active: 6.31 µM | –
C=CCn1c(C)cc(C(=O)COc2ncnc3sccc23)c1C | inconclusive: 10 µM [cytotoxic, partial curve] | –
Cc1nnc(SCC(=O)c2cc(C)n(-c3ccc4c(c3)OCO4)c2C)s1 | inconclusive: 25.1 µM [cytotoxic, single point] | –
O=C(Nc1ccc2nc(SCC(=O)N3CCOCC3)sc2c1)c1cccc(Cl)c1 | inconclusive: 31.6 µM [cytotoxic, single point] | –
Cc1ccc(C2CCN(C(=O)Nc3ccccc3)C2)cc1 (stereo not given) | inconclusive: 20 µM [cytotoxic, partial curve] | –
COc1cc(/C=N/NC(=O)CCn2nnc3ccccc32)ccc1O | inconclusive: 0.0891 µM [cytotoxic, full curve, poor fit] | –
CCCCNc1nc(C)nc2c1nc(C)n2CCC | inactive | –
COc1ccc(C2=NCC(CSc3nnc(-c4ccc5c(c4)OCO5)o3)S2)cc1 (stereo not given) | inactive | –
O=C(Nc1cccc(O)c1)c1ccc(Br)cc1 | inconclusive: 15.8 µM [cytotoxic, single point] | –
O=C(NCCc1cccs1)c1ccc(Cn2c(SCc3ccccc3)nc3cccnc32)cc1 | inconclusive: 25.1 µM [cytotoxic, single point] | –
O=C(Nc1ccc(Oc2ccccc2)cc1)C1CCCO1 (stereo not given) | inconclusive: 25.1 µM [cytotoxic, single point] | –
O=C(Nc1nc2c(F)cc(F)cc2s1)c1ccc2c(c1)OCCO2 | inconclusive: 15.8 µM [cytotoxic, single point] | –
CN(C)C=Nc1ccc2nn(-c3ccccc3)nc2c1 | inconclusive: 15.8 µM [cytotoxic, single point] | –
COc1ccc(-c2ccc(-c3nnn(CC(=O)N4CCOCC4)n3)cc2)cc1 | active: 2.51 µM | –
CCn1c(C)cc(=S)c2ccccc21 | inactive | –

SMILES | Potency | activity change, negative = cytotoxicity
COc1ccc(NC(=S)NC(NC(C)=O)C(Cl)(Cl)Cl)c([N+](=O)[O-])c1 (stereo not given) | inconclusive: 0.0158 µM [cytotoxic, full curve, poor fit] | –
Cn1nnnc1SCCNCc1ccc(OCc2ccccc2Cl)cc1 | inconclusive: 20 µM [cytotoxic, partial curve, poor fit] | –
CC(NC(=O)c1ccc(NC(=O)c2nsc3ccccc23)cc1)c1ccccc1 (stereo not given) | inconclusive: 10 µM [cytotoxic, single point] | –
Cc1nnc(N2CCCC(C(=O)Nc3cccc(C(F)(F)F)c3)C2)c2nn(-c3ccccc3)c(C)c12 (stereo not given) | inconclusive: 20 µM [cytotoxic, single point] | –
O=C(Nc1cccc(Cl)c1)c1cc(-c2ccc3c(c2)OCCO3)on1 | inconclusive: 3.98 µM [cytotoxic, full curve] | –
CCN(CC)CCNC(=O)C(=O)NCC(c1cccnc1)N1CCN(c2ccccc2)CC1 (stereo not given) | inconclusive: 17.8 µM [cytotoxic, partial curve] | –
CCOc1ccc(-n2nc(CO)c(C(=O)NCc3cccnc3)n2)cc1 | inconclusive: 12.6 µM [cytotoxic, partial curve] | –
Cc1cc(C(=O)CSc2n[nH]c(N)n2)c(C)n1-c1cc(F)ccc1F | inconclusive: 15.8 µM [cytotoxic, single point] | –
Cc1[nH]c2ccccc2c1C(c1ccccc1)c1cccs1 (stereo not given) | inactive | –
Cc1ccc(NC(=O)CSc2c3c(nc4ccccc24)CCCC3)cc1F | inconclusive: 31.6 µM [cytotoxic, single point] | –
Cc1nn(C(C)C(=O)NC2CCCCC2)c(=O)c2c1sc1ccccc12 (stereo not given) | active: 12.6 µM | –
Cc1ccc(-c2nnc(Nc3ccc(Br)cc3)c3ccccc23)cc1S(=O)(=O)N1CCN(C)CC1 | inactive | –
O=C(c1ccc2c(c1)N(Cc1ccccc1)C(=O)c1ccccc1S2(=O)=O)N1CCN(c2ccccc2)CC1 | inactive | –
C=C(C)COc1ccc(-c2[nH]ncc2-c2ccccc2OC)c(O)c1 | inconclusive: 31.6 µM [cytotoxic, single point] | –
COc1ccc(CCNC(=O)Cn2c(=O)n(-c3ccc(C)c(C)c3)c(=O)c3c(C)c(C)sc32)cc1OC | inactive | –
O=C(Cn1c2c(c(-c3ccccc3)cc1=O)CCCC2)N1CCCCCC1 | inconclusive: 31.6 µM [cytotoxic, single point] | –
COc1ccc(NC(=O)c2ccc3oc(=O)c(S(=O)(=O)c4ccc(C)cc4)cc3c2)cc1OC | inactive | –
CN(C)c1ncc2nc(-c3ccccc3)c(=O)n(C)c2n1 | inconclusive: 31.6 µM [cytotoxic, single point] | –
COc1cc(C(=O)Nc2ccc3c(c2)OCCO3)ccc1OC(C)C | inconclusive: 12.6 µM [cytotoxic, partial curve] | –
CCC(Sc1nc2ccccc2c2nc(CCn3cncc3C)nn12)C(=O)Nc1cccc(OC)c1 (stereo not given) | inconclusive: 20 µM [cytotoxic, single point] | –
COC(=O)NC(c1cccc(F)c1)[C@]1(C(C)=O)CCCC1=O (stereo not given in full) | – | inactive: 0.385% [at 9.22 µM]
CCOC(=O)CSc1nc2c([nH]c3ccccc32)c(=O)n1-c1ccc(OC)cc1 | inactive | –
